Reference: PubChem BioAssay AID485281 (National Center for Advancing Translational Sciences (NCATS), 2010)
The campaign covered roughly 350,000 compounds. About 260 (0.074%) were called active. The inconclusive results got no clear call from the source; some entries with a clear call stand among them for comparison. Calls come from the whole dose curve; as a rule, active = well fitted inhibition curve with a large enough effect; inconclusive = small, poorly fitted or top-dose-only effect; inactive = no such curve, though single readings can be large or run the other way. Where the call is inconclusive, the potency comes from a doubtful curve fit.

The compounds below were run against Ferritin light chain (Equus caballus) (UniProt P02791) (assay: qHTS Assay for Identification of Novel General Anesthetics). Settings: apoferritin/1-aminoanthracene competitive binding, fluorescence; activity change, negative = displacement: at 77.5 µM (top of the series).
Chain of UniProt P02791 (P02791 whole entry, looked up): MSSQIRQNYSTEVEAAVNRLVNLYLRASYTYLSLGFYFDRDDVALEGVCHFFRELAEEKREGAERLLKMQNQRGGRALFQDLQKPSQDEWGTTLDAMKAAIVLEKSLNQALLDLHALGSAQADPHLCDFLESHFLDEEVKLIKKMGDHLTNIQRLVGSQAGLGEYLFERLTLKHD
Outline: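 In PBS, apoferritin at 10 uM is loaded with 1-AMA from a 50% saturated solution. After 10 min of compound exposure at ambient temperature, reduced 535 nm fluorescence indicates probe displacement.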
% is set by controls: 0 for no effect and ±100 for the full control effect; potency is the fitted concentration of half-maximal effect; tags give direction and shape of the fitted curve.
Note: nearly all actives have a fitted effect of over 20% in size.

| Structure (SMILES) | Potency | activity change, negative = displacement |
| --- | --- | --- |
| C/C(=N\OC(=O)NC(C)C)c1sc(-c2ccc(Cl)cc2)nc1C | inconclusive: 28.2 µM [inhibitor, single point] |  |
| O=C(O)c1ccc2c(c1)C1C(Cl)C(Sc3ccccc3[N+](=O)[O-])CC1C(c1cccc([N+](=O)[O-])c1)N2 (centres undefined) | inconclusive: 31.6 µM [inhibitor, partial curve] |  |
| CC1(C)C(c2ccccc2)=NC(c2cccnc2)=[N+]1[O-] | inconclusive: 39.8 µM [inhibitor, partial curve] |  |
| O=C1C=C2C=C[C@H]3C[C@@]2(O1)[C@H]1CCCCN31 |  | inactive: -17.1% [at 29.3 µM] |
| O=C(c1ccco1)c1cn(Cc2ccccc2)c2ccccc12 | inconclusive: 15.8 µM [inhibitor, partial curve] |  |
| CC(=O)O[C@@]12CO[C@@H]1C[C@H](OC1OCC(O)C(O)C1O)[C@@]1(C)C(=O)[C@H](O)C3=C(C)[C@@H](OC(=O)[C@H](O)[C@@H](NC(=O)c4ccccc4)c4ccccc4)C[C@@](O)([C@@H](OC(=O)c4ccccc4)C12)C3(C)C (some centres undefined) | inconclusive: 39.8 µM [inhibitor, single point] |  |
| O=C(Nc1ccccc1[N+](=O)[O-])c1ccc(S(=O)(=O)N2CCCC2)cc1 | inconclusive: 39.8 µM [inhibitor, single point] |  |
| N#CC(C#N)=NNc1cccc(Cl)c1 | inconclusive: 56.2 µM [inhibitor, single point] |  |
| COC(=O)C(O)(c1ccc(NC(=S)NC(=O)c2ccc(Cl)cc2Cl)cc1)C(F)(F)F (centres undefined) | inconclusive: 35.5 µM [inhibitor, single point] |  |
| Cc1nc2ccc(P(=O)(O)O)cc2s1 |  | inactive: -1.4% |
| C[C@@H]1O[C@H](O[C@@H]2CC[C@@]3(C=O)[C@H]4CC[C@@]5(C)[C@@H](C6=CC(=O)OC6)CC[C@@]5(O)[C@@H]4CC[C@]3(O)C2)C[C@H](O)[C@@H]1O |  | inactive: 35.3% [at 29.3 µM] |
| C[CH2][Hg][S]c1ccccc1C(=O)O |  | inactive: 6.5% |
| CN1/C(=C\C=C\C2=[N+](C)c3ccc4ccccc4c3C2(C)C)C(C)(C)c2ccccc21 | inconclusive: 11.2 µM [inhibitor, partial curve] |  |
| COc1cc2c(cc1/C=C/[N+](=O)[O-])OCO2 |  | inactive: -12.9% |
| c1ccc(SSc2ccccc2)cc1 | inconclusive: 31.6 µM [inhibitor, single point] |  |
| CC(C)(C)c1ccc(O)cc1 | inconclusive: 28.2 µM [inhibitor, partial curve] |  |
| C[C@H]1O[C@@H](O[C@H]2[C@@H](O)C[C@H](O[C@H]3[C@@H](O)C[C@H](O[C@H]4CC[C@@]5(C)[C@H](CC[C@@H]6[C@@H]5CC[C@]5(C)[C@@H](C7=CC(=O)OC7)CC[C@]65O)C4)O[C@@H]3C)O[C@@H]2C)C[C@H](O)[C@@H]1O |  | inactive: -6.47% |

| Structure (SMILES) | Potency | activity change, negative = displacement |
| --- | --- | --- |
| CCCCCn1c(=O)c(C(=O)NCc2ccncc2)c(O)c2ccccc21 | inconclusive: 35.5 µM [inhibitor, partial curve] |  |
| Cc1ccc(CN2CCCC(C(=O)c3cccc(C(F)(F)F)c3)C2)o1 (centres undefined) | inconclusive: 28.2 µM [inhibitor, partial curve] |  |
| CC1CCC2C(C)C(=O)OC3O[C@]4(C)CCC1[C@@]32OO4 (some centres undefined) | inconclusive: 22.4 µM [inhibitor, partial curve] |  |
| COc1cc(C)cc(CN2CC=C(c3ccccc3)CC2)c1O | inconclusive: 25.1 µM [inhibitor, partial curve] |  |
| COCCNC(=O)c1c(N)n(CCC(C)C)c2nc3ccccc3nc12 |  | inactive: 763% |
| C[C@H](N)C(=O)N[C@@H](C)C(=O)N[C@@H](Cc1ccccc1)C(=O)CCl |  | inactive: 4.28% |
| CN1CCC(OC(=O)C2c3ccccc3Oc3ccccc32)CC1 |  | inactive: -16.4% |
| CCCCC/C=C\C/C=C\C/C=C\C/C=C\CCCC(=O)OCCN | inconclusive: 22.4 µM [inhibitor, single point] |  |
| O=C1C(Cl)=C(N2CCOCC2)C(=O)N1c1ccccc1F | inconclusive: 31.6 µM [inhibitor, partial curve] |  |
| CCn1nc(-c2ccccc2)nc2c(=O)n(C)c(=O)nc1-2 |  | inactive: -1.44% |
| O=C(c1cc2cc3ccc(Cl)cc3nc2o1)N1CCC2(CC1)OCCO2 |  | inactive: -8.81% |
| Cc1ccc(CSc2ncccc2C(=O)O)cc1 | inconclusive: 39.8 µM [inhibitor, partial curve] |  |
| CCN(CC)c1ccc(/C=C2/C(=O)NC(=O)N(Cc3ccco3)C2=O)cc1 | inconclusive: 25.1 µM [inhibitor, single point] |  |
| Cc1ccsc1C(=O)C1CCCN(Cc2cnc(N3CCCC3)s2)C1 (centres undefined) |  | inactive: -22.5% |
| Cc1ccc(-n2c(/C=C/c3ccccc3)nc3ccccc3c2=O)cc1C | inconclusive: 3.55 µM [inhibitor, full curve, poor fit] |  |
| COc1cccc(C2(O)CCSCC2CN(C)C)c1 (centres undefined) |  | inactive: -10.8% |
| CCCCN1C(=O)NC(=O)C2(Cc3c(nc4c(C)cccn4c3=O)N3CCc4ccccc4C32)C1=O (centres undefined) |  | inactive: -6.54% |
